What all share (test): protein-binding microarray (PBM)
Common to all, as to settings: PBM: ~300 nM protein, 6 mM HEPES pH 7.8, 80 mM KCl, 0.5 mM EDTA, 0.5 mM EGTA, 6% glycerol, 35 ng/ul poly-dIdC, 1% milk, 1 h, room temperature; Ap Aiptasia and Nv Nematostella (sea anemones) / Co Capsaspora / Aq Amphimedon (sponge) / Dm Drosophila / Hu human; RHD is the Rel homology domain; high values mean tight binding; most listed sequences are background and not binding sites; double strand, one strand shown

In one assay the target is T1, GST-Ap-NF-kB RHD (UniProt A0A913YAJ5).
T1 sequence: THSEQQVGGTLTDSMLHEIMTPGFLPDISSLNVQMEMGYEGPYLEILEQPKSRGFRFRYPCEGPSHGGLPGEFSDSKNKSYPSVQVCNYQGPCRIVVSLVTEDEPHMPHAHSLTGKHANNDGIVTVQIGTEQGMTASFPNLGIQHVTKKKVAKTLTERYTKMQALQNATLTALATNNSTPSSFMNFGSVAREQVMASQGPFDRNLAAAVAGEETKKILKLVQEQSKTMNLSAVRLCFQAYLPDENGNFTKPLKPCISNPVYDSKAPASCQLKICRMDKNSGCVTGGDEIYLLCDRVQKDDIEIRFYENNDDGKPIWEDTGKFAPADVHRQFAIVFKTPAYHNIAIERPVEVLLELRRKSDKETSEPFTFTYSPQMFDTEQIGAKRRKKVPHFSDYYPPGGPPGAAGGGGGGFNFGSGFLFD

Assay [1] deals with T2, GST-Nv-NF-kB (Cys allele) (UniProt E5G601).
T2 sequence: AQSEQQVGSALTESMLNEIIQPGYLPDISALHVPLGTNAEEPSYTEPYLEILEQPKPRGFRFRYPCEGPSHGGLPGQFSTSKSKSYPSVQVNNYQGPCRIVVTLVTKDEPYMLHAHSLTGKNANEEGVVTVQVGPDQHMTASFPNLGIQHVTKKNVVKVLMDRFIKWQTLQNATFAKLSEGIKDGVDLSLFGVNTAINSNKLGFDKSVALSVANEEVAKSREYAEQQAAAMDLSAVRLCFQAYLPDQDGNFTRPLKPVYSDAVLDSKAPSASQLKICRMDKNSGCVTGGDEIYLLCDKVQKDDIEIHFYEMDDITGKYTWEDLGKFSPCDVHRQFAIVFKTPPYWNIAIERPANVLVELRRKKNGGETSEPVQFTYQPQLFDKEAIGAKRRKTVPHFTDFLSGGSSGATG

The target of the next assay is T3, GST-Co-NF-kB (UniProt F1ARL5).
T3 sequence: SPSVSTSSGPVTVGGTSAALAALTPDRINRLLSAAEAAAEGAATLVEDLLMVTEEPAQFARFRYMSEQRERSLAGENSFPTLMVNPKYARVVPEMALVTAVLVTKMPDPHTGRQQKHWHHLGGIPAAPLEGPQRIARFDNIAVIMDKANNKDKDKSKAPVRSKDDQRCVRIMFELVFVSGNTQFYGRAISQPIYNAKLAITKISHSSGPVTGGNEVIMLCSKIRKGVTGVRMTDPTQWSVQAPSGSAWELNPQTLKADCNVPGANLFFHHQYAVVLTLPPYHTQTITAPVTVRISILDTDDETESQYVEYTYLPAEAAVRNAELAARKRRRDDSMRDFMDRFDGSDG

The list shows a part of the results, in another mix than the full data. The list includes weakly bound sequences.

Consider “CCGATTAACATCAGGTATTTTACTGATGTTAATCGGGTCTTGATTCGCTTGACGCTGCTG”, for which the binding signal in the assay with GST-Ap-NF-kB RHD was determined as 0.529 z-score; in assay [1], 0.961 z-score; in the assay with GST-Co-NF-kB, 0.667 z-score.
The matching figures for “CCGATTAACATCACGGAAATTTATGATGTTAATCGGGTCTTGATTCGCTTGACGCTGCTG”: 0.416 z-score, 0.34 z-score and 1.07 z-score.
For “CCGATTAACATCAATGTTCCCCCTGATGTTAATCGGGTCTTGATTCGCTTGACGCTGCTG”, the binding signal with GST-Ap-NF-kB RHD was found to be 6.95 z-score; in assay [1] it was 6.49 z-score; in the assay with GST-Co-NF-kB, 11 z-score.
Taken in the same sequence, the figures for “CCGATTAACATCACCCCCGCCCCTGATGTTAATCGGGTCTTGATTCGCTTGACGCTGCTG” were 4.47 z-score, 3.37 z-score and 6.71 z-score.
Taken in the same sequence, the figures for “CCGATTAACATCAGAAACCCCCATGATGTTAATCGGGTCTTGATTCGCTTGACGCTGCTG” were 7.61 z-score, 6.32 z-score and 2.76 z-score.
Consider “CCGATTAACATCAGGACTGCCCCTGATGTTAATCGGGTCTTGATTCGCTTGACGCTGCTG”, for which the binding signal was determined as 3.49 z-score in the assay with GST-Ap-NF-kB RHD, 4.13 z-score in assay [1] and 0.794 z-score with GST-Co-NF-kB.
Taken in the same sequence, the figures for “CCGATTAACATCACGTAAATTCCTGATGTTAATCGGGTCTTGATTCGCTTGACGCTGCTG” were -0.0527 z-score, -0.39 z-score and 0.6 z-score.
Taken in the same sequence, the figures for “CCGATTAACATCACCCCAACCCCTGATGTTAATCGGGTCTTGATTCGCTTGACGCTGCTG” were 2.55 z-score, 0.793 z-score and 3.44 z-score.
Regarding “CCGATTAACATCAGGAATTCCAATGATGTTAATCGGGTCTTGATTCGCTTGACGCTGCTG”, the binding signal with GST-Ap-NF-kB RHD was -0.113 z-score; in assay [1], -0.0511 z-score; with GST-Co-NF-kB it was 0.239 z-score.
Taken in the same sequence, the figures for “CCGATTAACATCAGGGATGCCCATGATGTTAATCGGGTCTTGATTCGCTTGACGCTGCTG” were 0.575 z-score, 0.793 z-score and 0.358 z-score.
Regarding “CCGATTAACATCAGGAAGACCCCTGATGTTAATCGGGTCTTGATTCGCTTGACGCTGCTG”, the binding signal in the assay with GST-Ap-NF-kB RHD came out at 3.9 z-score; in assay [1] it was 3.08 z-score; in the assay with GST-Co-NF-kB, 0.79 z-score.
The matching figures for “CCGATTAACATCAGGGGGTCCACTGATGTTAATCGGGTCTTGATTCGCTTGACGCTGCTG”: 4.33 z-score, 2.44 z-score and 1.99 z-score.
Regarding “CCGATTAACATCACGGAATTTTATGATGTTAATCGGGTCTTGATTCGCTTGACGCTGCTG”, the results for the binding signal (with GST-Ap-NF-kB RHD; in assay [1]; in the assay with GST-Co-NF-kB) were 0.554 z-score, -0.0517 z-score and 0.215 z-score, respectively.
For “CCGATTAACATCAAAAAAACTCCTGATGTTAATCGGGTCTTGATTCGCTTGACGCTGCTG”, the binding signal is 0.279 z-score with GST-Ap-NF-kB RHD, -0.23 z-score in assay [1] and -0.205 z-score in the assay with GST-Co-NF-kB.
As to “CCGATTAACATCAAAAAAATTCCTGATGTTAATCGGGTCTTGATTCGCTTGACGCTGCTG”, the binding signal was 0.195 z-score with GST-Ap-NF-kB RHD, 1.23 z-score in assay [1] and 0.936 z-score with GST-Co-NF-kB.
The matching figures for “CCGATTAACATCAAGGAAATACCTGATGTTAATCGGGTCTTGATTCGCTTGACGCTGCTG”: 1.2 z-score, 0.957 z-score and 0.431 z-score.
For “CCGATTAACATCAAAAAAAGTCCTGATGTTAATCGGGTCTTGATTCGCTTGACGCTGCTG”, the results for the binding signal (in the assay with GST-Ap-NF-kB RHD; in assay [1]; in the assay with GST-Co-NF-kB) were 1.18 z-score, 1.72 z-score and 0.654 z-score, respectively.
Taken in the same sequence, the figures for “CCGATTAACATCAATGGAATTCCTGATGTTAATCGGGTCTTGATTCGCTTGACGCTGCTG” were 0.0412 z-score, 0.509 z-score and 0.358 z-score.
The matching figures for “CCGATTAACATCAAAAGAACCCCTGATGTTAATCGGGTCTTGATTCGCTTGACGCTGCTG”: 4.18 z-score, 3.46 z-score and 2.76 z-score.
Taken in the same sequence, the figures for “CCGATTAACATCAGGAAACCCACTGATGTTAATCGGGTCTTGATTCGCTTGACGCTGCTG” were 0.87 z-score, 0.263 z-score and 0.256 z-score.

The values above are taken from paper PMC5700166.
